Experimental data reported in PMC4336329 (PLoS ONE, 2015).
Hit rate of the full screen: of about 310,000 compounds, about 2,200 (0.71%) showed an effect of 50% or more. The effect is printed as a negative number. The list shows a part of the results.

Molecular target: human ether-à-go-go-related gene (hERG) potassium channel (human, UniProt Q12809)
Experiment: primary screen, population patch clamp on CHO cells stably expressing hERG

human ether-à-go-go-related gene (hERG) potassium channel, sequence (Q12809 whole entry, looked up): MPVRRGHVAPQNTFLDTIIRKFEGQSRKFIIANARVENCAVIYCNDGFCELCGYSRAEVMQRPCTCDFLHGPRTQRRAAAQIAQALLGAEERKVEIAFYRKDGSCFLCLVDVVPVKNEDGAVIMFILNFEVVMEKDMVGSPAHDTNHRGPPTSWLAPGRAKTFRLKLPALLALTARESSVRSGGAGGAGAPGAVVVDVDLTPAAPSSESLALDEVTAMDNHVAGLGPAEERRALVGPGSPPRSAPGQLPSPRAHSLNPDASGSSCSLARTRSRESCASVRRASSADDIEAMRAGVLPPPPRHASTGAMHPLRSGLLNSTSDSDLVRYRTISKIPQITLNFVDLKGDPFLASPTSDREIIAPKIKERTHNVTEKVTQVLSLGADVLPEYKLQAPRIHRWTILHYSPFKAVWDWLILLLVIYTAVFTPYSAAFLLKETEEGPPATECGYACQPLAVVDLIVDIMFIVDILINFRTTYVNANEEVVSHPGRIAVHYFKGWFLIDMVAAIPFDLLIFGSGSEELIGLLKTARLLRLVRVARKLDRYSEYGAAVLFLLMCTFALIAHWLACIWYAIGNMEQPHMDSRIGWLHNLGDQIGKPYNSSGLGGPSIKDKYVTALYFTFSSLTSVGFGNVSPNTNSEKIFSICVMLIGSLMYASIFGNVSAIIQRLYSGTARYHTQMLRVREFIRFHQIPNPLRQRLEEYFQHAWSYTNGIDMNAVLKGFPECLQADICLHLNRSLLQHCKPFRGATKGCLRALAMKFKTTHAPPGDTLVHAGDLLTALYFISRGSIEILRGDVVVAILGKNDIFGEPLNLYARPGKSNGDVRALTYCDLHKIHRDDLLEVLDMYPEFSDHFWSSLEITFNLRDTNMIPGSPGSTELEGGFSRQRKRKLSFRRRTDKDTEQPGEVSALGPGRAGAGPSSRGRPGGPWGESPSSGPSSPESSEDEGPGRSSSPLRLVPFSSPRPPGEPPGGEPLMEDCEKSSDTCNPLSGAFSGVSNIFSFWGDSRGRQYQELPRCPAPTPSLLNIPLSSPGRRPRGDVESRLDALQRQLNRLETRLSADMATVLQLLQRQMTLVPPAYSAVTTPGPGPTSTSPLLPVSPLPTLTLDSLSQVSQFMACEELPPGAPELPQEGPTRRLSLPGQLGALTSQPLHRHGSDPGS

Compound | hERG current change (%, negative = inhibition) at 1uM [%]
O=C(NN1CC(C(=O)OCc2ccc(Cl)cc2Cl)CC1=O)c1ccccc1 (stereo not drawn) | 12.6
CN(C)CCN1CC(O)=C(c2nc3ccccc3s2)C1=N | 12.8
COc1ccc(NC(=O)C(=O)NCCO)cc1Cl | 9.5
CCOc1ccc(NC(=O)CN(C)C(=O)CCCn2c(=O)oc3ccccc32)cc1OCC | -0.61
CN1CCN(c2ccccc2NC(=O)c2cccc([N+](=O)[O-])c2)CC1 | -67.1
COc1ccc(CCN(C)C(=O)c2cc(-c3ccc(C)cc3)nc3ccccc23)cc1OC | 9.42
CS(=O)(=O)CCC(C(=O)OCC(=O)c1ccc(Cl)cc1)N1C(=O)c2ccccc2C1=O (stereo not drawn) | 1.6
O=C(/C=C\c1ccco1)c1ccc(NC(=O)c2ccco2)cc1 | 14.4
O=C(O)C1CCCN(S(=O)(=O)c2ccccc2)C1 (stereo not drawn) | 19.3
Cc1nc2ccccc2nc(C)c1=NOCc1cccc(F)c1 | 11.5
CN(CCC#N)C(=O)COC(=O)c1cccnc1Nc1ccccc1F | 0.35
Cc1ccc(C(=O)OCC(=O)Nc2sc3c(c2C#N)CCCC3)cc1NC(=O)c1ccco1 | 5.49
CC(=O)CC[C@@H](C)O[C@@H]1OC(C)[C@H](O)CC1O (stereo partly drawn) | 15.7
CC(C)CNC(=O)NC1C(NC(=O)NCC(C)C)N(C)C(=O)N1C (stereo not drawn) | 6.41
Cc1cc(-n2c(C)cc(C(=O)CN3C(=O)NC4(CCCCC4)C3=O)c2C)no1 | -14.5
CCOC(=O)c1ccccc1NC(=O)COc1ccccc1 | 13.4
CC(C)c1nnc(NC(=O)C2CCCN2S(=O)(=O)c2ccc(Cl)cc2)s1 (stereo not drawn) | 10.7
COc1cc(N=c2c([N+](=O)[O-])nn(-c3ccc4c(c3)OCCO4)n2O)cc(OC)c1 | 10.4
COc1ccc(OC)c(NC(=O)C2C3CC4OC(=O)C2C4C3)c1 (stereo not drawn) | 8.97
Cc1ccc(O)c(C)c1 | 14.1
CCOC(=O)COn1c(-n2nc(C)cc2C)nc2ccccc2c1=O | 3.53
Cc1nnc(SCC(=O)N2CCCc3ccccc32)[nH]c1=O | 5.54
O=[N+]([O-])c1ccc(C(O)CN2CCOCC2)cc1 (stereo not drawn) | 18.6

Compound | hERG current change (%, negative = inhibition) at 1uM [%]
CCn1c(COc2cccc(C)c2)nnc1SCC(=O)N1CCCC1 | -8.35
CCCCC(C(=O)N/N=C/c1ccccn1)C(=O)N/N=C/c1ccccn1 | 5.34
C#CCNC(=O)C1=C[C@@H](C(C)(C)C)C[C@@H](OCc2ccc(CO)cc2)O1 | 13.5
O=C(CN1CCCC1)Nc1ccc(Br)cc1[N+](=O)[O-] | 16.3
COc1ccccc1OCCCn1cc(C#N)c2ccccc21 | 1.66
CCOC(=O)c1c(CSc2ccc(C)cc2)oc2ccc(O)cc12 | 6.7
Cc1ccc(S(=O)(=O)NCC(C)n2cncn2)cc1 (stereo not drawn) | 2.12
COc1ccc(C(CNC(=S)NCc2ccccc2)N2CCCC2)cc1 (stereo not drawn) | 4.14
O=c1[nH]c(=O)n(C2CCCCCC2)c(O)c1C=NCc1cccnc1 | 11.8
NNC(=O)c1cc2ccccc2cc1NS(=O)(=O)c1ccccc1 | 12.1
Cc1noc(NS(=O)(=O)c2ccc(NC(=O)Cc3ccc([N+](=O)[O-])cc3)cc2)c1C | 15.2
COc1ccc(-c2ccc(C#N)c(SCC(=O)OCc3ccccc3)n2)cc1OC | 3.84
COc1ccc(N2CC(C)Cn3c2nc2c3c(=O)n(Cc3ccccc3)c(=O)n2C)c(OC)c1 (stereo not drawn) | 6.21
Cc1nc2ccc(NC(=O)c3ccco3)cc2nc1C | 9.94
Cc1ccc(Cn2cnc3ccccc32)cc1 | 13
CCC(NC(=O)C1CCCC1)c1ccccc1 (stereo not drawn) | 15.4
O=C(Cn1nc(-c2ccccc2)oc1=O)OCC(=O)c1ccc(F)c(F)c1 | 12.5
O=C(Nc1nnc(S(=O)(=O)N2CCN(c3ccc(F)cc3)CC2)s1)c1ccco1 | 12.2
Cc1ccc(-c2ccc(S(=O)(=O)N3CCCC3)cc2)cc1 | 8.65
COC(=O)c1ccc(Oc2nc(NC(C)(C)C)nc(N3CCOCC3)n2)cc1 | -11.1
CC(Oc1ccc(Cl)cc1Cl)C(=O)Nc1ccncc1 (stereo not drawn) | 6.32
CCOC(=O)C1CCN(C(=O)c2cc3c(-c4ccc(OC)c(OC)c4)nn(C)c3s2)CC1 | 6.92
